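Following 48 hours of exposure in 96-well plates, responses at five concentrations were used to interpolate endpoints linearly. GI50: concentration for 50% inhibition of growth.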 Active and inactive are the calls of the source. No stated cut-off is given here; in the data, active = GI50 up to about 1.1 µM and inactive = higher. Peptide text beside a SMILES is read from it. * marks the point of attachment. Cbz = O=C(OCc1ccccc1)*
Tested on: NCI-H322M
Assay: DTP human tumour cell line panel, 48 h

Structure (SMILES) | GI50
CCOP(=O)(OCC)/C(C#N)=C/c1cccn1Cc1ccccc1 | inactive: 38.3 µM
CN(C)CCN1N=Nc2cccc3cccc1c23 | inactive: > 100 µM
CCC1CC2C(=O)N(c3ccccc3)C(=O)C2c2[nH]c3ccccc3c21 (configuration not stated) | inactive: 38.5 µM
CC(C)(Oc1ccc(C2C[C@H]2Cl)cc1)C(=O)O (some centres not stated) | inactive: > 100 µM
CSc1ccc2c(cc1=O)C(NC(=O)c1ccccc1)CCc1cc(O)c(O)c(O)c1-2 (configuration not stated) | inactive: 3.59 µM
O=NN(CCCl)C(=O)NCc1ccc[n+]([O-])c1 | inactive: > 100 µM
CC1(C)OC2C(O1)[C@H]1OC(C(Cl)(Cl)Cl)=N[C@H]1C(I)[C@H]2N1C(=O)c2ccccc2C1=O (some centres not stated) | inactive: 81.3 µM
COc1cc(/C=N/N=C(\N)NO)ccc1O | inactive: 52 µM
CC(CCC(=O)O)[C@H]1CCC2[C@H]3C(CC(=O)[C@@]21C)[C@@]1(C)CCC(O)C[C@H]1C[C@@H]3O (some centres not stated) | inactive: > 100 µM
CO[P@@]1(=O)O[C@@H](c2ccccc2)[C@H](O)[C@@]1(O)c1ccccc1 | inactive: > 100 µM
OCCN1CCN(CC/C=C2/c3ccccc3Sc3ccc(Cl)cc32)CC1 | inactive: 16.6 µM
O=C(/C=C/c1ccc(OCc2ccccc2)cc1)NCc1ccc(C(=O)NCCc2c[nH]c3ccccc23)cc1 | inactive: 47.8 µM
CCOC(=O)c1ccc(NCc2ccc3nc(OC)c(OC)nc3c2)cc1 | inactive: > 100 µM
OC1/C(=C/c2ccccc2)CNC/C1=C\c1ccccc1 (configuration not stated) | inactive: > 100 µM
CCCCN1C(=O)C[C@H]2[C@@H]3CCc4cc(OCCN5CCCC5)ccc4[C@H]3CC[C@]2(C)C1=O | inactive: 9.64 µM
CC(NC(=N)N)C(=O)O (configuration not stated) | inactive: > 100 µM
CC(C)=C=CC(C)(C)NS(=O)(=O)NC(C)(C)C=C=C(C)C | inactive: > 100 µM
O=c1c(Sc2ncccn2)c(Sc2ncccn2)cnn1CCl | inactive: 16.4 µM
O=[N+]([O-])c1cc(/C=N/C23CC4CC(CC(C4)C2)C3)ccc1Cl | inactive: 69.3 µM
Cn1ncc(=S)[nH]c1=S | inactive: > 100 µM
Cc1ccc(S(=O)(=O)OC2CN3CCC2CC3)cc1 (configuration not stated) | inactive: > 100 µM
COc1ccc(N2C(=O)/C(=C\c3cccc(Oc4ccccc4)c3)SC2c2ccccc2)cc1 (configuration not stated) | inactive: > 100 µM
CCOC(=O)c1ccc(C(=O)/C(C(=O)OC(C)(C)C)=C2\CCCN2C)n1C | inactive: > 100 µM
Cn1c(COC(=O)NC2CCCCC2)c(COC(=O)NC2CCCCC2)c2ccc3cc(C=O)ccc3c21 | inactive: > 100 µM
O=C(/C=C/c1cccc([N+](=O)[O-])c1)N1CCN(CCOC(c2ccccc2)c2ccccc2)CC1 | inactive: > 100 µM

Structure (SMILES) | GI50
Clc1ccc(-c2cc(-c3nc4ccccc4[nH]3)no2)cc1 | inactive: 19.3 µM
S=C(N1CCN(c2ccccc2)CC1)N1CCN(c2ccccc2)CC1 | inactive: > 100 µM
NC1=C(N2CCCCC2)C(=O)NC2=N/C(=C\c3ccco3)C(=O)N21 | inactive: > 100 µM
NC(=O)c1c([N+](=O)[O-])cc(C(F)(F)F)cc1[N+](=O)[O-] | inactive: > 100 µM
C[N+]1(C)CCC(C#N)(c2ccccc2)CC1 | inactive: > 100 µM
CC1Cc2cc(O)c(O)cc2-c2cc(O)c(O)cc2CC1C (configuration not stated) | inactive: 16.3 µM
Nc1cc[nH]c(=O)n1 | inactive: > 100 µM
O=P1(c2ccccc2)Nc2ccccc2SSc2ccccc2N1 | inactive: 16.7 µM
COc1cc(C(=O)C(CO)Oc2ccccc2OC)ccc1O (configuration not stated) | inactive: > 100 µM
Cn1cnc([N+](=O)[O-])c1Sc1nc(N)nc2c1ncn2[C@H]1C[C@H](O)[C@@H](CO)O1 | inactive: 14.5 µM
CCOc1cccc2nc3cccc(C(=O)NCCN(C)C)c3nc12 | inactive: 1.14 µM
Cc1ccc(N2CCN(CCC(=O)O)CC2)cc1 | inactive: > 100 µM
O=C1NC(N2CCCCC2)=N/C1=C\c1ccco1 | inactive: > 100 µM
CS(=O)(=O)N1CC(CCl)c2ccc([N+](=O)[O-])cc21 (configuration not stated) | inactive: > 100 µM
COC(=O)c1ccccc1C1CN=NC12Cc1cccc(C)c1C2=O (configuration not stated) | inactive: > 100 µM
O=C(Nc1ccc(Cl)cc1Cl)C(=O)C(C(=O)c1ccncc1)C1OC(=O)c2ccccc21 (configuration not stated) | inactive: > 100 µM
O=[N+]([O-])c1cc(I)cc(/C=N/NS(=O)(=O)c2ccc(Cl)cc2)c1O | inactive: 27.1 µM
c1ccc(SC2CCSc3ccccc3C2Sc2ccccc2)cc1 (configuration not stated) | inactive: > 100 µM
C[C@@H](CN1CC(=O)NC(=O)C1)N1CC(=O)NC(=O)C1 [DEXRAZOXANE] | inactive: 441 µM
O=[N+]([O-])c1ccc(-c2nc(/C=N/N3CCCCC3)cs2)o1 | inactive: 61.9 µM
Cc1nc2c(ccc3[nH]c4ccccc4c32)s1 | inactive: 31.2 µM
CSc1n[nH]c2[nH]nc(C)c12 | inactive: > 100 µM
N#CC1(O)CCCCCCCCCCC1 | inactive: > 100 µM
CCCN1C(=O)CC(C)N(Cc2ccccc2Cl)C1=S (configuration not stated) | inactive: 44.6 µM
C[N+](C)(C)CC1CCC/C1=N\OC(=O)c1ccccc1 (configuration not stated) | inactive: > 100 µM

Structure (SMILES) | GI50
CC1=CC(c2ccccc2)n2c(nc3cc4ccccc4cc32)N1 (configuration not stated) | inactive: > 100 µM
COC1=CC(=O)C2C(C1=O)C(c1ccccc1)[C@H]2C (some centres not stated) | inactive: > 100 µM
COc1cc(COC(=O)NC(Cc2cccs2)C(=O)O)c([N+](=O)[O-])cc1OC (configuration not stated) | inactive: > 100 µM
O=C(O)CN(CC(=O)O)c1ccccc1 | inactive: 78.9 µM
Cc1cc(O)nc(NN2C(Cl)C(=O)C2c2c(O)ccc3ccccc23)n1 (configuration not stated) | inactive: 18.9 µM
N#C/C(=C\c1ccc(F)cc1)c1nc(-c2cc3ccccc3oc2=O)cs1 | inactive: 56.1 µM
CCOC(=O)Cc1c(C)c2ccc(OC(C)=O)c(OC(C)=O)c2oc1=O | inactive: 35.7 µM
Nc1ccn(C2OC(CO)C(O)C2O)c(=O)c1 (configuration not stated) | inactive: > 625 µM
O=C(CC(=O)C1CCOC1=O)C(=O)Nc1ccc(Cl)cc1Cl (configuration not stated) | inactive: > 100 µM
N#CC(/C(=N\NC(N)=S)C(=O)NC1C2CC3CC(C2)CC1C3)c1ccc(Cl)cc1 (configuration not stated) | inactive: > 100 µM
CCc1nc(N)nc(N)c1-c1ccc(NCCc2ccccc2)c([N+](=O)[O-])c1 | inactive: 1.79 µM
CC(=O)NNC(=S)N/C=C1/C(=O)Oc2ccccc2C1=O | inactive: > 100 µM
COc1cccc(-c2cc(O)c3cccnc3n2)c1 | active: 0.309 µM
O=c1c2ccccc2[nH]c(=S)n1-c1ccc(/N=N/c2cccc3c(O)cccc23)cc1 | inactive: > 100 µM
Oc1cc(-c2ccccc2)nc2cc3c(cc12)OCO3 | inactive: 11.7 µM
Cc1cccc(C)c1NC(=O)CCc1nnc2s/c(=C\c3ccc(Cl)cc3)c(=O)n12 | inactive: > 100 µM
O=C1Cc2c([nH]c3ccccc23)C2(CC3CCCCN13)OCCO2 (configuration not stated) | inactive: > 100 µM
Cc1nc(-n2nc(-c3ccccc3)cc2-c2ccccc2)sc1C(=O)/C=C/c1ccc(Cl)cc1 | inactive: 15.9 µM
CCOC(=O)N1[C@@H]2CCC[C@@H]2C(=O)[C@@H]2CCC[C@@H]21 | inactive: > 100 µM
OC1(c2ccccc2)CSc2ncnn21 (configuration not stated) | inactive: > 100 µM
CCOC(=O)N1N=NC2C3OC(C[C@@]3(C#N)OC(C)=O)[C@H]21 (some centres not stated) | inactive: > 100 µM
O=C(Cn1c(C(=O)/C=C/c2cccs2)nc2ccccc21)c1ccc(Cl)cc1 | inactive: 31.5 µM
COCCNC(=O)C1C(=O)C(=O)N(CCOC)C1=O (configuration not stated) | inactive: > 100 µM
CC12CCC(=O)N1c1cncnc1N2 (configuration not stated) | inactive: > 10 µM
Cc1cc(N(CCC#N)CCC#N)ccc1/C=C1\N=C(c2cc([N+](=O)[O-])ccc2Cl)N(c2cccc(Cl)c2)C1=O | inactive: > 100 µM

Structure (SMILES) | GI50
COC1(OC)C2(Cl)C(Cl)=C(Cl)C1(Cl)C1C=CC=CC12 (configuration not stated) | inactive: > 100 µM
O=P1(N2CCOCC2)OCCO1 | inactive: > 100 µM
O=C(O)C1(Cc2ccc3c(c2)CCC3)Cc2cc3c(cc2C1)CCC3 | inactive: > 100 µM
CCOC(=O)/C(C(=O)Nc1ccc(F)cc1)=C(/N)N1CCOCC1 | inactive: > 100 µM
Nc1ncnc2nn(C3OC(CO)C(O)C3O)nc12 (configuration not stated) | inactive: 20.4 µM
CCOC(=O)N1N(c2ccccc2)C(=O)C1(c1ccccc1)c1ccccc1 | inactive: > 100 µM
COc1ccc(-c2nc(-c3cc4ccccc4oc3=O)cs2)cc1 | inactive: 36.1 µM
COC(=O)[C@@]12C(=O)C(C)C(=O)[C@]1(C)C(C)=C[C@H]1[C@]3(C=O)CC[C@H](OC(C)=O)C(C)(C)[C@H]3CC[C@@]12C (some centres not stated) | inactive: > 100 µM
CN(Cc1ccccc1)c1cc(=O)n(C)c(=O)[nH]1 | inactive: > 100 µM
CS(=O)(=O)OCC1CN(S(C)(=O)=O)c2cc(O)ccc21 (configuration not stated) | inactive: 6.32 µM
CCCCCCCCCC1CC(=O)Oc2cccc(O)c21 (configuration not stated) | inactive: 4.94 µM
COc1ccc2c(cnc3c4cc(OC)c(OC)cc4ccc23)c1 | inactive: > 100 µM
ClC1=C(Cc2ccccc2)Cc2ccc3c(c21)CCC3 | inactive: 78.5 µM
Cc1cccc(NC(=O)/C(=N\N)C(c2cnc3ccc([N+](=O)[O-])cc3n2)[N+](=O)[O-])c1C (configuration not stated) | inactive: > 100 µM
Cc1cc(=O)oc2cc(OCc3nc4ccccc4c(=O)n3-c3ccccc3)ccc12 | inactive: > 100 µM
CCOC(=O)/C=C(\C(=O)OCC)n1cc(C)c(=O)n(Cc2cnnn2COCCOC(C)=O)c1=O | inactive: 27.9 µM
CCOC(=O)CCC(NC(=O)OCc1ccccc1)C(=O)NC(CCC(=O)OCC)C(=O)OCC (configuration not stated) (Cbz-Glu(OEt)-Glu(OEt)-OEt; configuration not given here) | inactive: > 100 µM
COc1ccc2c(c1)N=C1CSC(c3cccc(Br)c3)N1C2 (configuration not stated) | inactive: 18.5 µM
Nc1ncnc2sc(Nc3ccccc3)nc12 | inactive: > 100 µM
Cc1nnc2ccccc2c1O | inactive: > 100 µM
COC1(O)C(=O)c2ccccc2OC1(OC)c1ccccc1 (configuration not stated) | inactive: > 100 µM
COc1cc(C2c3cc4c(cc3[C@@H](Nc3ccc(Oc5ccccc5)cc3)C3COC(=O)[C@H]23)OCO4)cc(OC)c1O (some centres not stated) | inactive: > 34.8 µM
